# Measured values from patent publication US20250122271A1, “ANTI-DKK1 ANTIBODY, PHARMACEUTICAL COMPOSITION THEREOF, AND USE THEREOF” (SHANGHAI JUNSHI BIOSCIENCES CO., LTD., priority 2022, published 2025).
# T1: human DKK1 (Homo sapiens, UniProt O94907)
# T1 construct: purchased Sino Biological 10170-H08H
# T1 sequence (O94907 32-266): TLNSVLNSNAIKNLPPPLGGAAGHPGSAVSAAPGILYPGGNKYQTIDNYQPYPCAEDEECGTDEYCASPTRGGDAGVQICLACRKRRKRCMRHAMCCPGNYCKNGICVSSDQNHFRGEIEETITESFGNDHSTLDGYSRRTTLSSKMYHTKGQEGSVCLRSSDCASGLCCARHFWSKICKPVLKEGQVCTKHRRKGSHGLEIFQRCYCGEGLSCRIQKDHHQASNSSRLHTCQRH
# What was measured:
# human DKK1 = biological target: T1, human DKK1; experiment: Luciferase reporter gene assay in 293 TOP cells with Wnt3a and human DKK1 (recovery of Wnt signaling); format: cell-based; conditions: humanized antibodies
# Protocol: (§1) The cellular biological activity of the DKK1 antibodies was tested using target cells 293 TOP overexpressing LRP5/6 and comprising the luciferase reporter system and recombinant Wnt3a (R&D systems, cat #5036-WN), as well as human DKK1 (Sino Biological, cat #10170-H08H) protein. The target cells 293 TOP were placed into a 96-well flat-bottomed white plate (corning, cat #3917) at 50,000 cells per well for incubation overnight. The supernatant was then discarded, and the gradiently diluted antibodies to be tested were each added for pre-incubation at 37° C. for 0.5 h. After the pre-incubation was completed, the diluted Wnt3a (R&D systems, cat #5036-WN) and human DKK1 protein, at working concentrations of 0.05 μg/mL and 0.1 μg/mL, respectively, were added into the mixture containing the cells and antibody for co-incubation at 37° C. for 6-8 h. Finally, the luciferase substrate One-Lite (Vazyme, cat #DD1203-03-AB) was added and the chemiluminescence values of the hybridoma antibodies were measured.
# The cellular biological activity of the hDKK1 chimeric antibodies was tested using target cells 293 TOP overexpressing LRP5/6 and comprising the luciferase reporter system and recombinant Wnt3a (R&D systems, cat #5036-WN), as well as human DKK1 (Sino Biological, cat #10170-H08H) protein.
# as §1, with “The” for “The cellular biological activity of the DKK1 antibodies was tested using target cells 293 TOP overexpressing LRP5/6 and comprising the luciferase reporter system and recombinant Wnt3a (R&D systems, cat #5036-WN), as well as human DKK1 (Sino Biological, cat #10170-H08H) protein. The”, “chimeric” for “hybridoma”, “measured (FIGS. 5A-5C).” for “measured.”
# as §1, with “After the pre-incubation was completed, the diluted Wnt3a (R&D systems, cat #5036-WN) and human DKK1 protein, at working concentrations of 0.05 μg/mL and 0.1 μg/mL, respectively, were added into the mixture containing the cells and antibody for co-incubation at 37° C. for 6-8 h.” left out, “humanized” for “hybridoma”, “measured. […]” for “measured.”
# A549 cells = experiment: A549 subcutaneous transplantation tumor model in CB17/SCID female mice; format: in vivo
# Protocol: (§2) The experimental animals were CB17/SCID female mice, and A549 cells (5× 10^6) were subcutaneously inoculated into the mice to establish a subcutaneous transplantation tumor model. […] The groups each had 6 animals, and the animals in all the groups were subjected to intraperitoneal injection. […] The efficacy was evaluated based on tumor growth inhibition (TGI) (FIG. 9).
# PC-3 cells = experiment: PC-3 subcutaneous transplantation tumor model in CB17/SCID male mice; format: in vivo
# Protocol: as §2, with “male” for “female”, “PC-3” for “A549”, “(10×10^6)” for “(5× 10^6)”, “in the right back of” for “into”, “8” for “6”, “10).” for “9).”
molecule,measurement,setting,value
"hu3: humanized antibody, VH/VL SEQ ID NO: 49/56, HC/LC SEQ ID NO: 79/86 (antibody) heavy: EVQLLQSAAEVKRPGESLRISCKTSGYTFTEYTMHWVRQMPGKELEWMGVIDPSNGDTSYNQKFKGHVTISADKSSSTAYLQWSSLKASDAAMYYCSSTTGPWFASWGQGTLVTVSSASTKGPSVFPLAPCSRSTSESTAALGCLVKDYFPEPVTVSWNSGALTSGVHTFPAVLQSSGLYSLSSVVTVPSSSLGTKTYTCNVDHKPSNTKVDKRV[letters of human IgG4 Fc with S228P (EU numbers) omitted] light: EIVMTQSPPTLSLSPGERVTLSCRASQDISNYLNWYQQKPGQAPRLLIYYKSRLHSGIPARFSGSGSGTDFTLTISSLQPEDFAVYYCQQVHTLPPTFGQGTKLEIKRTVAAPSVFIFPPSDEQLKSGTASVVCLLNNFYPREAKVQWKVDNALQSGNSQESVTEQDSKDSTYSLSSTLTLSKADYEKHKVYACEVTHQGLSSPVTKSFNRGEC",activity in the screening at cellular level,human DKK1,superior activity
same,tumor inhibition (in words),"A549 cells; 5 mg/kg, p=0.013",significant tumor inhibition
same,tumor growth inhibition (TGI),"A549 cells; day 35 after tumor inoculation, 5 mg/kg intraperitoneal once per week for 4 weeks",35.29%
same,tumor growth inhibition (TGI),"PC-3 cells; day 21, hu3 10 mg/kg intraperitoneal twice per week for 3 weeks",48.8%
same,tumor growth inhibition (TGI),"PC-3 cells; day 21, hu3 20 mg/kg intraperitoneal twice per week for 3 weeks",56.4%
same,tumor growth inhibition (TGI),"PC-3 cells; day 21 after tumor inoculation, hu3 5 mg/kg intraperitoneal twice per week for 3 weeks",30.7%
same,tumor inhibition (in words),"PC-3 cells; doses of 5 mg/kg, 10 mg/kg and 20 mg/kg",significant tumor inhibition
"hu64: humanized antibody, VH/VL SEQ ID NO: 72/76, HC/LC SEQ ID NO: 102/106 (antibody) heavy: QVQLVQSGAEVKKPGSSVKVSCKASGYTFTSYNMLWVRQAPGQGLEWMGVIFPGNGDTSYNPKFKGRVTLTADKSSSTAYMELSSLRSEDTAVYYCARDGYPSMDYWGQGTLVTVSSASTKGPSVFPLAPCSRSTSESTAALGCLVKDYFPEPVTVSWNSGALTSGVHTFPAVLQSSGLYSLSSVVTVPSSSLGTKTYTCNVDHKPSNTKVDKRV[letters of human IgG4 Fc with S228P (EU numbers) omitted] light: DTQLTQSPSFLSASVGDRVTITCITSTDIDDDMNWYQQKPGKAPKLLISEGNSLRPGVPSRFSSSGSGTEFTLTISSLQPEDFATYYCLQFNNMPLTFGQGTKLEIKRTVAAPSVFIFPPSDEQLKSGTASVVCLLNNFYPREAKVQWKVDNALQSGNSQESVTEQDSKDSTYSLSSTLTLSKADYEKHKVYACEVTHQGLSSPVTKSFNRGEC",activity in the screening at cellular level,human DKK1,superior activity
"hu52: humanized antibody, VH/VL SEQ ID NO: 69/76, HC/LC SEQ ID NO: 99/106 (antibody) heavy: QVQLVQSGAEVKKPGASVKVSCKASGYTFTSYNMLWVRQAPGQRLEWMGVIFPGNGDTSYNPKFKGRVTLTADKSSSTAYMELSSLRSEDTAVYYCARDGYPSMDYWGQGTLVTVSSASTKGPSVFPLAPCSRSTSESTAALGCLVKDYFPEPVTVSWNSGALTSGVHTFPAVLQSSGLYSLSSVVTVPSSSLGTKTYTCNVDHKPSNTKVDKRV[letters of human IgG4 Fc with S228P (EU numbers) omitted] light: DTQLTQSPSFLSASVGDRVTITCITSTDIDDDMNWYQQKPGKAPKLLISEGNSLRPGVPSRFSSSGSGTEFTLTISSLQPEDFATYYCLQFNNMPLTFGQGTKLEIKRTVAAPSVFIFPPSDEQLKSGTASVVCLLNNFYPREAKVQWKVDNALQSGNSQESVTEQDSKDSTYSLSSTLTLSKADYEKHKVYACEVTHQGLSSPVTKSFNRGEC",activity in the screening at cellular level,human DKK1,superior activity
"hu50: humanized antibody, VH/VL SEQ ID NO: 69/74, HC/LC SEQ ID NO: 99/104 (antibody) heavy: QVQLVQSGAEVKKPGASVKVSCKASGYTFTSYNMLWVRQAPGQRLEWMGVIFPGNGDTSYNPKFKGRVTLTADKSSSTAYMELSSLRSEDTAVYYCARDGYPSMDYWGQGTLVTVSSASTKGPSVFPLAPCSRSTSESTAALGCLVKDYFPEPVTVSWNSGALTSGVHTFPAVLQSSGLYSLSSVVTVPSSSLGTKTYTCNVDHKPSNTKVDKRV[letters of human IgG4 Fc with S228P (EU numbers) omitted] light: DIQMTQSPSSVSASVGDRVTITCITSTDIDDDMNWYQQKPGKAPKLLISEGNSLRPGVPSRFSGSGSGTDFTLTISSLQPEDFATYYCLQFNNMPLTFGQGTKLEIKRTVAAPSVFIFPPSDEQLKSGTASVVCLLNNFYPREAKVQWKVDNALQSGNSQESVTEQDSKDSTYSLSSTLTLSKADYEKHKVYACEVTHQGLSSPVTKSFNRGEC",activity in the screening at cellular level,human DKK1,superior activity
